Variants at the floor of the assay are shown more often than the library holds them.
B1: TPR 5TU (parent)
chain: GGAUCUUCUCGAUCUAACAAAAAAGACAAAUCUGCCACAAAGCUUGAGAGCAUCUUCGGAUGCAGAGGCGGCAGCCUUCGGUGGCGCGAUAGCGCCAACGUUCUCAACUAUGACACGCAAAACGCGUGCUCCGUUGAAUGGAGUUUAUCAUG

Variants of: B1
Assay: polymerase ribozyme fitness, log enrichment relative to wild type (log ratio); higher = more active; in vitro selection for triplet polymerase activity
Method in brief: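 After PCR construction and transcription, each subunit's mutant library from a heterodimeric triplet polymerase ribozyme was annealed with a biotinylated primer, the partner subunit and triplets. Incubation was frozen, at −7 °C, and extended constructs were gel-excised, bound to streptavidin beads and amplified by RT-PCR, in one selection round done in triplicate. Fitness is the logarithm of a genotype's enrichment divided by that of the wild type, from inverse-variance-weighted replicate averages of Illumina-sequenced inputs and outputs. The base of the logarithm is 2, and genotypes needed ≥10 input reads and ≥1 read per output.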

Variant | polymerase ribozyme fitness (log ratio)
C18U G58C C85U C87U | -1.92
C18U A47C C79G G88A A91C A121U U148G | ≤ -4.2
C18G C51A U53A U55G A119U G126U U144A | ≤ -4.2
A19C A21U U55A C76G G88U G128U | ≤ -4.2
A19G C69G C76U U82G G88A G141U A150C | ≤ -4.2
A19C A23G U31A C38U C51G C85U | ≤ -4.2
A19G C123G | -1.22
C18U A24C C35U C79U C103G A119G | ≤ -4.2
A19C G71A G92C C99A G117A G140U | ≤ -4.2
A19C G50U G58U G68U | ≤ -4.2
C18U A24G G50A C72U G92A U102G G117U A138U | ≤ -4.2
A19C A29U C36G A91C U109C A150C | ≤ -4.2
A19G A52U A110U U146G | ≤ -4.2
A19G A37C U56A U61G U82G C93U U101C C132U | ≤ -4.2
C18U A23U C57A G92C | ≤ -4.2
A19C A21U C43A C96G A107U U148A | ≤ -4.2
A19C A29U A49G U55A A66G C76U C79U G83U U90G A110U G143C | ≤ -4.2
C18U A37C G74C G81C | ≤ -4.2
C18G C35U C96A A97U C116U G117A A138C G140U | ≤ -4.2
A19C A22G A24U G88C | ≤ -4.2
C18U C51U A89U C96A | -2.24
A19G C32G G46A U61A G81A G86C C87A G88U G117U U151A | ≤ -4.2
A19C C54A C72U C85G C96U A150U | ≤ -4.2
A19C A22G A29U U44C | ≤ -4.2

Variant | polymerase ribozyme fitness (log ratio)
C18U A30G C87U | ≤ -4.2
C18U C87U C99U A119G C125G U135G | ≤ -4.2
C18U A60G C76U C103G G112U | ≤ -4.2
C18U G34A A66G A97C C103U C123G | ≤ -4.2
C18G U53A U139C | ≤ -4.2
C18U A26G U82G G92A | ≤ -4.2
A19G A28C A89U G133U A142C | ≤ -4.2
A19G C57G U78G G86C U90G C123A | ≤ -4.2
C18G G83U C87A C105G A137G | ≤ -4.2
A19C A150G | -0.495
C18U G84U G88A A91U C96A C125U | ≤ -4.2
A19G A28U A49G C51U U55A G86A G94U C96A U144G | ≤ -4.2
A19C G70A C99A | ≤ -4.2
A19C C54U C93A C103G | ≤ -4.2
A19C A28U C75A C85U G92U | ≤ -4.2
C18U A24C G84U A106G U109A A121U C131A G141A U145A | ≤ -4.2
A19C U90G C93A A107U | ≤ -4.2
A19C U44G G50C G67C U104A G143U | ≤ -4.2
C18G U56A A64G C79U G88C A142U | ≤ -4.2
A19C C36U C95G A98G U127A U151C | ≤ -4.2
C18U C87A | ≤ -4.2
A19G A49C G50C U61G G92C A138C | ≤ -4.2
C18G A66C C99G A147U | ≤ -4.2
C18U A40U G59A U61G U78A G94A | ≤ -4.2

Variant | polymerase ribozyme fitness (log ratio)
A19C C32U A52U G80C C99G C149G | ≤ -4.2
C18U A23U A28G A73U U78A G92U C95U A107G A122G | ≤ -4.2
C18G C36A C103U U134C G141U | ≤ -4.2
A19C C27A C125U U148G | ≤ -4.2
A19C G34A C95A C96G A97G G100U C131A | ≤ -4.2
A19C A26C A29U C72A G88A U144C C149A | ≤ -4.2
C18G C32G A52C G58C A142C U145C U148G | ≤ -4.2
A19G A26G G88A G133U A147G | ≤ -4.2
A19G C54G U56A G94A C105G A113C | ≤ -4.2
A19G A29G G92A C116G | -3.8
C18U C38A G94C G124U C125U U148A A150C | ≤ -4.2
C18G G92U U104C U109C U139A | ≤ -4.2
A19G C32A G46C C54U G59C A106U G128C | ≤ -4.2
A19G C35U U53G C54A G71A U145C | -2.47
A19G A21U C32G A39G G50A G84U A106C G128A C132G U134G U144G | ≤ -4.2
A19C G65A G83C | -1.84
C18G C35U G83C G128U U151G | ≤ -4.2
C18U G58C A137U | ≤ -4.2
A19C A21U C27G A52G G70A C85A C87U C103U C108A A138U | ≤ -4.2
C18G U44C G58C U61G C85G C114U C118G | ≤ -4.2
C18U U78G C87G C99G A106G C118A | ≤ -4.2
A19C A20C A40G U55C G71U G84A A138U U139A | ≤ -4.2
A19C A29C U33G C87G C108U U135A U148A | ≤ -4.2
A19C A21U C43A C85U | ≤ -4.2

Variant | polymerase ribozyme fitness (log ratio)
A19G C54G C63A A91C C118G | ≤ -4.2
A19C A21U U101A | 0.427
C18U U45A U56A G70A C85U | ≤ -4.2
C18U A22U C43U C95U U101G G136A A138U | ≤ -4.2
A19C A20C A28U C75G C93U | ≤ -4.2
C18U C36A G50A C75U | ≤ -4.2
A19G G46C A64C C85G G100U A137U | ≤ -4.2
A19G A37C C93G A107G A122U C125A | ≤ -4.2
C18G G50A C76U A115G A119G | -3.18
A19C A52U | -1.43
A19C A24U A37U C54U C76U C93G A113U | ≤ -4.2
A19C C75U C87G C96U G126A | ≤ -4.2
C18G G42A U45A G58U A122C A142G | ≤ -4.2
A19C A52U C87G U90A C96G C103A | ≤ -4.2
A19C A30C U44A C79A G94C C96A A113G C116A A120C C129A | ≤ -4.2
A19C G62A G80A U101G C103G A106U U127C U148C | ≤ -4.2
C18G G25A G50C | ≤ -4.2
A19C C43U C51G G71A C87G C105U C108U G141C | ≤ -4.2
A19C C54U U77G A98G C129A | ≤ -4.2
A19G A22U G58U A73C A113U A119C | ≤ -4.2
C18G G65C A73G C87A G88U A119C C131U | ≤ -4.2
C18U A19U G88A C95A C96U | ≤ -4.2
A19G G50C C75G C85G C103A U135C | ≤ -4.2
C18U G84A C118A A142C U144C | ≤ -4.2

Variant | polymerase ribozyme fitness (log ratio)
A19C A23G G80C C87G G88A G136A | ≤ -4.2
A19C A52G G92C C96A A147C | -3.53
A19C A22G U31G C38U A107U G117A | -4.16
A19C C54A U78G C96U G141C | ≤ -4.2
A19C A22C U55G G92U C149G | ≤ -4.2
C18U U31C U56G A138U G140A | -4
C18G U31A A107G | ≤ -4.2
A19G A40U G62U A121U G141U | -1.46
A19C A20U A28U A30U A97G A113U A115G | ≤ -4.2
C18G U33G G68A G83A U139C | ≤ -4.2
A19C G70A C76G C99G | ≤ -4.2
C18U A52G A89C C96G U109A A115U | ≤ -4.2
C18U A64C C75G U82G C95A C96U A107U G140C | ≤ -4.2
C18U A40G C57G C95U | -3.91
C18G G68C C116U G143C | ≤ -4.2
C18U G25U G42C A73U G83U C93U A106G A121C U144A | ≤ -4.2
C18G G50U G88A | -4.08
A19G G48U G74A G88U G94C G143U | ≤ -4.2
C18U C27A A47G U56A C57A G59U C69G C93G G143U U146C | ≤ -4.2
C18U A22C A40C G42A C129G | ≤ -4.2
A19C A110C | ≤ -4.2
C18U U31G U53A G81C G83A C105G U135G | ≤ -4.2
C18U G133A | ≤ -4.2
A19C A30U G50A A73C G80U G86A C118A U145G | ≤ -4.2

Variant | polymerase ribozyme fitness (log ratio)
C18G G25C U33C C108G | -3.95
C18U A21C G141A | 0.0565
A19C C27A G81C G117C A121G C149G | ≤ -4.2
C18U A41C C72U C93G U104G | ≤ -4.2
A19C C79U A98U | -1.81
A19C A29U C43A A52C G94C | ≤ -4.2
C18U C54G G59A C93A G136U | ≤ -4.2
A19C U61A C103A | ≤ -4.2
C18G U56G C85U | -0.856
A19C A26C C38A C43G G74U G80C A121U U127G G136A A138C | ≤ -4.2
C18U A26U A29U G34U U55A A60C C76A G152U | ≤ -4.2
C18U U55A U56A C63G A66C C96G C132U | ≤ -4.2
A19C A21C A26C U44A C57A U61A G68A G86A C118U | ≤ -4.2
A19C A23C A60G C72G C116U U127G G143U | ≤ -4.2
C18U G88C C103A G112C G143C | ≤ -4.2
C18U A19G | -1.03
A19C A47C A97U C99G U109G | ≤ -4.2
A19G A29G C38A U53A C76U G86U C99U | ≤ -4.2
A19C U31G A40C G83C G84U C108G | ≤ -4.2
A19C A40U G50A U77C C93U U104G | ≤ -4.2
C18U A37U G83A C87U U90G A98C C116A G133U A137C | ≤ -4.2
A19C G80A C85G | -0.89
C18U G81A C87U A97U | -1.14
A19C A28U G46C C63A G71A U101C C114U A122U G143C | ≤ -4.2

Variant | polymerase ribozyme fitness (log ratio)
A19G G42A A66C C85U A106U U148A | ≤ -4.2
A19G A26G C51U A52C G143A | ≤ -4.2
C18U A24U A39G G80C A120C G126A G136C U145G | ≤ -4.2
C18U G34A G48U C75U G94C G141U | ≤ -4.2
A19C C43U C76A G81C A91G A106U A121C G136U A142G | ≤ -4.2
A19G A22U C51U G67C A98U A137G | ≤ -4.2
A19C G133A G141U | ≤ -4.2
C18U A26C A39U A49C C57U | ≤ -4.2
A19G A49C | ≤ -4.2
C18U G59C U104G A137C | ≤ -4.2
C18G G84C G126U | -2.27
A19C U31C | 1.56
A19C A22U C35A A106G | -3.28
C18G U56A C93A U134G U144A | ≤ -4.2
A19G A20U C38A G80A G92A A142U | ≤ -4.2
A19C C125U | 0.16
C18G C32U A49C C85A U139A | ≤ -4.2
A19G G50A C69U G84U A98U A122G | ≤ -4.2
A19C A60G C96U | 0.412
A19G G34A G50A U56A C69A C95A | ≤ -4.2
C18U G48U U55A A91U C131G G141A | ≤ -4.2
A19G A29C G92U G126U U144A | ≤ -4.2
A19C U31A C38A G80A A98U | -0.863

From the RNAGym collection of RNA variant scans (doi:10.1073/pnas.2313332121)
